In article PMC4081100:
Only a part is listed here, and it is no random draw. For part of these data: At the low end of the ranking the order means little. Some of the results follow. For part of these data: Construct or isoform of the protein are uncertain.

How the values were obtained:
Test in all cases: universal protein binding microarray (PBM)
Settings in all cases: transcription factors of Arabidopsis thaliana; high values mean tight binding; most listed sequences are background and not binding sites; double strand, one strand shown
GST-ANAC092(1-176) = target: T1, GST-ANAC092(1-176) (UniProt Q9FKA0)
T1 sequence: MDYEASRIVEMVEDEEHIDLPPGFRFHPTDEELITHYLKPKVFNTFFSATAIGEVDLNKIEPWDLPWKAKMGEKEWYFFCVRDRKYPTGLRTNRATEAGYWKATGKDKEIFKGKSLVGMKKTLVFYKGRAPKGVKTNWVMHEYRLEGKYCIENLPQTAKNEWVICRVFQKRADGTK

GST-NTL6(1-168) = GST-NTL6(1-168) (UniProt Q9SCK6)
GST-ANAC019 NAC domain = target: T2, GST-ANAC019 NAC domain (UniProt Q9C932)
T2 sequence: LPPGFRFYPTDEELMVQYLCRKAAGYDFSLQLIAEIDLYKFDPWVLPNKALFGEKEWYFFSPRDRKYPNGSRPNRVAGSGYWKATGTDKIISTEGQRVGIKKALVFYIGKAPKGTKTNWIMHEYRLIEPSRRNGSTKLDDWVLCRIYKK

GST-ANAC055(1-171) = target: T3, GST-ANAC055(1-171) (UniProt Q9LDY8)
T3 sequence: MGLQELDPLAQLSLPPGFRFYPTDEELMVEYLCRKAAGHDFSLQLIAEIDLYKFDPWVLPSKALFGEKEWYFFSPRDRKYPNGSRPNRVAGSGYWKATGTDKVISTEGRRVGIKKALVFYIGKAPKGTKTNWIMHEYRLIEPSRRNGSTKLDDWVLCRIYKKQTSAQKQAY

GST-ATAF1 NAC domain = target: T4, GST-ATAF1 NAC domain (UniProt Q39013)
T4 sequence: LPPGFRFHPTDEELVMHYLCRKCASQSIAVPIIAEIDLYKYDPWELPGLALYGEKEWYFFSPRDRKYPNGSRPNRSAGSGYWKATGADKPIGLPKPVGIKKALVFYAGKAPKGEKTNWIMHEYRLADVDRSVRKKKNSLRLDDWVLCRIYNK

[1] = target: T5, GST-ANAC092(1-285) full length (UniProt Q9FKA0)
T5 sequence: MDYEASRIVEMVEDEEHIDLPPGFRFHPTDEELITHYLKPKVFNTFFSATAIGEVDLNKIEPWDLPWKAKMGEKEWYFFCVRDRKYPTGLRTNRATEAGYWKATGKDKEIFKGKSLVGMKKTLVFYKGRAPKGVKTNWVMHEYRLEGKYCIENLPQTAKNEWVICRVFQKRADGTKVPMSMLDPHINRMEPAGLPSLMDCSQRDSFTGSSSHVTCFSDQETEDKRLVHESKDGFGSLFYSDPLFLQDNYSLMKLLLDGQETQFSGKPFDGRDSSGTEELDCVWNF

GST-NAP(1-166) = target: T6, GST-NAP(1-166) (UniProt O49255)
T6 sequence: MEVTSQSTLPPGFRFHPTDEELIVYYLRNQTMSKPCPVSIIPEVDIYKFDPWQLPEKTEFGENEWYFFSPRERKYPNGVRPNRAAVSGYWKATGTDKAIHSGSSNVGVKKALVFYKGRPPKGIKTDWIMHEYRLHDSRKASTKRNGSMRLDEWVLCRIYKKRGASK

GST-NST2(1-184) = target: T7, GST-NST2(1-184) (UniProt Q9M274)
T7 sequence: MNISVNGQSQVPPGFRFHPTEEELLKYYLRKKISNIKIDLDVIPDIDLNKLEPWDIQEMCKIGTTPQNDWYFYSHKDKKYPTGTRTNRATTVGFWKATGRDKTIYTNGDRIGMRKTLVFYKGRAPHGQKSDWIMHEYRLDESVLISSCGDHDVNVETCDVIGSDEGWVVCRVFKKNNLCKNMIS

GST-NTL8 NAC domain = target: T8, GST-NTL8 NAC domain (UniProt Q9XIN7)
T8 sequence: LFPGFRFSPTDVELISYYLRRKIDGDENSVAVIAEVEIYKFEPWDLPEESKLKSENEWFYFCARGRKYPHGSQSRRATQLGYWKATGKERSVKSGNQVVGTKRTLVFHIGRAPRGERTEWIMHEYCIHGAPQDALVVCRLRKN

GST-SND1(1-203) = target: T9, GST-SND1(1-203) (UniProt Q9LPI7)
T9 sequence: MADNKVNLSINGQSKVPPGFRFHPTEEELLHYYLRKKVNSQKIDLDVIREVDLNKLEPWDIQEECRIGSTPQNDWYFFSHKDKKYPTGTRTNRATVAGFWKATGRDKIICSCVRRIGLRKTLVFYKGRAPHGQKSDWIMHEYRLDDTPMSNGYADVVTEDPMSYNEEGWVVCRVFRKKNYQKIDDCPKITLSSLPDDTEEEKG

GST-VND3 NAC domain = target: T10, GST-VND3 NAC domain (UniProt Q9FH59)
T10 sequence: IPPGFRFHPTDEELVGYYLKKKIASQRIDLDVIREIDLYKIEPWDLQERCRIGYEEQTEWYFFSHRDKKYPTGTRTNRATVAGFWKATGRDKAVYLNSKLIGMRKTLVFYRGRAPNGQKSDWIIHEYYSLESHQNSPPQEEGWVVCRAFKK

GST-VND7 NAC domain = target: T11, GST-VND7 NAC domain (UniProt Q9C8W9)
T11 sequence: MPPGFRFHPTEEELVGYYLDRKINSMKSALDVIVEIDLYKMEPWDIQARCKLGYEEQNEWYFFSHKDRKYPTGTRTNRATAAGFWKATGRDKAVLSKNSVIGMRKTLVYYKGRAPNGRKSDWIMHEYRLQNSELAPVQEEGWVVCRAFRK

[2] = target: T12, GST-VOZ2 (Arabidopsis thaliana) (UniProt Q9SLB9)
T12 sequence: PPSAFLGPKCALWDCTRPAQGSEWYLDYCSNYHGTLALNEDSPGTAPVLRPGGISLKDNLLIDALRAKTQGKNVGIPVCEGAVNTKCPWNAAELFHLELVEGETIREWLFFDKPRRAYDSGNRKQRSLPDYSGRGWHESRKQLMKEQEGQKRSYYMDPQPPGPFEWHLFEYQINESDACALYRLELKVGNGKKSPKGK

Sequence | binding signal (GST-ANAC092(1-176)) [E-score] | binding signal (GST-NTL6(1-168)) [E-score] | binding signal (GST-ANAC019 NAC domain) [E-score] | binding signal (GST-ANAC055(1-171)) [E-score] | binding signal (GST-ATAF1 NAC domain) [E-score] | binding signal [1] [E-score] | binding signal (GST-NAP(1-166)) [E-score] | binding signal (GST-NST2(1-184)) [E-score] | binding signal (GST-NTL8 NAC domain) [E-score] | binding signal (GST-SND1(1-203)) [E-score] | binding signal (GST-VND3 NAC domain) [E-score] | binding signal (GST-VND7 NAC domain) [E-score] | binding signal [2] [E-score]
GTCAGCGA | -0.0258 | -0.0371 | -0.0642 | -0.0986 | -0.0785 | -0.141 | -0.0183 | -0.0188 | -0.0133 | -0.0963 | -0.105 | -0.135 | 0.0285
ACGTTGAC | 0.0221 | -0.0843 | -0.0738 | -0.0189 | 0.0168 |  |  | 0.0247 | -0.109 | 0.127 | -0.00589 | -0.0451 | -0.0473
CCGTTGAC | 0.0264 | -0.0639 | 0.157 | 0.00548 | -0.099 |  | 0.126 | 0.00662 | -0.0298 | 0.0236 | -0.091 | -0.0953 | -0.0943
GTCAAGAC | -0.0651 | 0.02 | 0.0215 | -0.171 | -0.119 |  | -0.0136 | -0.0424 | -0.0632 | -0.0015 | -0.058 | -0.0692 | -0.0624
CAAGTCAA | 0.0929 | -0.0534 | 0.0429 | -0.0108 | 0.0933 |  | -0.0516 | 0.0486 | -0.034 | 0.0488 | 0.0301 | 0.0166 | 0.0228
GATTTGAC | -0.159 | -0.068 | -0.0568 | 0.00328 |  | -0.152 | 0.0457 | -0.122 | -0.0952 | -0.127 | -0.016 | 0.0205 | -0.00725
GTGTCAAC | 0.0146 | -0.172 | 0.0933 | -0.0631 | -0.0748 | 0.026 |  | -0.141 | -0.16 | -0.0829 | -0.0347 | -0.0505 | -0.0236
AGTCAGCG | -0.0458 | -0.0588 | -0.109 | -0.144 | -0.153 | -0.0858 | -0.136 | -0.07 | -0.0154 | -0.00353 | -0.183 | -0.0803 | -0.0392
GAAAGTCA | -0.03 | 0.0172 | 0.042 | 0.0337 |  | 0.0781 | -0.117 | -0.0272 | 0.0471 | -0.11 | 0.0237 | 0.0313 | -0.107
CTGGGTCA | -0.0156 | -0.15 | 0.00458 | -0.157 | -0.092 |  | -0.142 | -0.0783 | 0.00064 | -0.111 | 0.0231 | 0.00884 | -0.0895
CATTTGAC | 0.0363 | 0.0255 | -0.0424 |  |  | 0.00911 | -0.00754 |  | -0.0646 | 0.0315 | 0.105 | 0.0331 | 0.11
AGGTCAAT | 0.0119 | 0.137 | -0.0133 |  | -0.014 | 0.0283 | 0.0221 | 0.0163 | -0.0486 | 0.0275 | 0.0493 | 0.0357 | 0.102
CGTCAACC |  | -0.115 | -0.0277 | -0.116 | -0.0644 |  | -0.0642 | -0.00826 | -0.105 | 0.0331 | -0.18 | -0.122 | 0.0181
GAAAAGTC | 0.00391 | -0.00967 |  | 0.0314 |  | -0.05 | 0.145 |  |  | 0.011 | -0.0111 | -0.0441 | -0.0164
GGGTCAAC |  | -0.0318 | 0.0467 | -0.0601 | -0.0697 |  | -0.0703 | -0.128 | -0.0572 | -0.0744 | -0.15 | -0.0545 | 0.00599
AAGTCAGC | -0.0826 |  | -0.111 | -0.124 | -0.168 | -0.0909 | -0.0636 | -0.0184 | 0.00726 | -0.0905 | -0.101 | -0.126 | -0.171
GGCTTGAC |  | -0.107 | 0.0223 | -0.000295 | 0.00809 | 0.0438 | 0.0264 | -0.0529 | -0.0385 | -0.063 | -0.0687 | -0.0664 | -0.0945
CTAAGTCA | -0.194 |  | -0.0986 | -0.156 | -0.165 | -0.102 | -0.135 | -0.00947 | -0.161 | 0.0346 | -0.0318 | -0.159 | -0.11
CTGACCAC | -0.114 | -0.0372 |  | 0.0073 | -0.0675 | -0.00836 | -0.123 | -0.0133 | -0.121 | 0.0107 | 0.0167 | -0.0753 | -0.00118
